Results from PubChem BioAssay AID602179 (National Center for Advancing Translational Sciences (NCATS), 2012).
The whole screen tested about 390,000 compounds, of which about 360 (0.092%) were called active. Inconclusive results, whose numbers are uncertain, are shown with a selection of clear calls. Calls follow the shape of the dose curve; as a rule, active = well fitted inhibition curve with a large enough effect; inconclusive = small, poorly fitted or top-dose-only effect; inactive = no such curve, though single readings can be large or run the other way. Potencies beside an inconclusive call are fits to weak or partial responses and may not hold up.

Target: Isocitrate dehydrogenase [NADP] cytoplasmic (Homo sapiens) (UniProt O75874)
Experiment: qHTS for Inhibitors of mutant isocitrate dehydrogenase 1 (IDH1): qHTS; also: nearly all actives have a fitted effect of over 65% in size
Conditions: IDH1-R132H enzyme, NADPH consumption, diaphorase/resazurin fluorescence; series mostly up to 76.6 µM; activity change, negative = inhibition: at the top concentration
In short: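 IDH1-R132H (0.5 ug/mL dispensed) in pH 7.5 Tris buffer was preincubated 30 min with compound, then given a substrate mix of 0.016 mM NADPH and 2 mM alpha-KG for 80 min at room temperature; remaining NADPH was read by diaphorase/resazurin fluorescence.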
% is scaled to controls: 0 for no effect and ±100 for the full control effect; potency is read from the fitted curve at half-maximal effect; tags tell the direction and shape of the fitted curve.

| SMILES | Potency | activity change, negative = inhibition |
| --- | --- | --- |
| Cc1ccc(-c2nc3ccc(C(=O)O)cc3nc2-c2ccc(C)cc2)cc1 | inconclusive: 52.1 µM [inhibitor, partial curve, poor fit] | – |
| CC(C)c1ccc(C2=CC(c3cccc(Cl)c3)n3c(nc4ccccc43)N2)cc1 (stereo not given) | inconclusive: 39.8 µM [inhibitor, partial curve, poor fit] | – |
| Cc1ccc(C)c(N2CCN(S(=O)(=O)c3ccc4c(c3)C(C(C)C)C(=O)N4)CC2)c1 (stereo not given) | inconclusive: 50.1 µM [inhibitor, single point] | – |
| CCCCn1cnc2cc(NCc3ccccc3Cl)ccc21 | inconclusive: 50.1 µM [inhibitor, single point] | – |
| O=c1[nH]c(=O)c2[nH]c(=S)[nH]c2[nH]1 | – | inactive: 11.6% |
| COC(=O)c1cc2oc(C)cc2n1CC(=O)Nc1ccc(C(C)C)cc1 | inconclusive: 50.1 µM [inhibitor, partial curve, poor fit] | – |
| COc1ccc(Cl)cc1C=CC=Nc1ccc(S(N)(=O)=O)cc1 | inconclusive: 58.5 µM [inhibitor, single point] | – |
| O=C(Nc1ccc(N2CCOCC2)c(S(=O)(=O)Nc2ccccc2Cl)c1)c1ccc(=O)[nH]n1 | inconclusive: 52.1 µM [inhibitor, single point] | – |
| O=C(NCc1cccs1)c1cc(-c2ccccc2)on1 | – | inactive: 12.2% |
| Nc1ncnc2c1ncn2[C@@H]1O[C@H](CNCc2ccccc2)[C@@H](O)[C@H]1O | – | inactive: 6.55% [at 38.3 µM] |
| COc1ccc(N(C(=O)c2snc(C(N)=O)c2N)C(C(=O)NC2CCCCC2)c2ccc(C)o2)cc1 (stereo not given) | inconclusive: 23.3 µM [inhibitor, full curve] | – |
| c1ccc(C(c2ccccc2)N2CCN(Cc3nnnn3C3CCCC3)CC2)cc1 | inconclusive: 58.5 µM [inhibitor, partial curve, poor fit] | – |
| CCC(CO)Oc1cc(NCc2ccc(C(F)(F)F)cc2)c2ncn(C(C)C)c2c1 (stereo not given) | inconclusive: 44.7 µM [inhibitor, partial curve, poor fit] | – |
| COC(=O)C1=C(C)NC(C)=C(C(=O)OC)C1c1ccc(NC(C)=O)cc1 | – | inactive: 0% |
| COc1ccc(-c2nc3ccccc3n3c(-c4cccc(C)c4)c4c(=O)n(C)c(=O)n(C)c4c23)cc1OC | inconclusive: 44.7 µM [inhibitor, partial curve, poor fit] | – |
| Cc1ccc(N2C(=O)c3n[nH]c(C)c3C2c2ccc(Cl)cc2)cc1 (stereo not given) | inconclusive: 50.1 µM [inhibitor, single point] | – |
| CC1=C(C(=O)OCC2CCCCC2)C(c2ccc(Cl)cc2)CC(=O)N1 (stereo not given) | inconclusive: 50.1 µM [inhibitor, single point] | – |
| COc1cccc(N=NC2C(=O)N(C(N)=S)N=C2C)c1 (stereo not given) | inconclusive: 16.5 µM [inhibitor, single point] | – |
| COc1ccc(N(CC(=O)N2CCN(c3ccc(Cl)cc3)CC2)S(=O)(=O)c2c(C)n[nH]c2C)cc1 | inconclusive: 7.36 µM [inhibitor, partial curve, poor fit] | – |
| CCOc1ccc(S(=O)(=O)Nc2cc(NS(=O)(=O)c3ccc(OCC)cc3)cc(C(=O)O)c2)cc1 | inconclusive: 52.1 µM [inhibitor, single point] | – |
| COC(=O)c1ccc(-c2c(-c3ccccc3)ncc3cc(OC)c(OC)cc23)cc1 | active: 39.8 µM | – |
| COc1ccc2ncc(S(=O)(=O)c3ccccc3)c(N3CCN(c4ccccc4)CC3)c2c1 | – | inactive: 2.12% |

| SMILES | Potency | activity change, negative = inhibition |
| --- | --- | --- |
| COc1ccccc1C(=O)NCCn1cc(SCC(=O)NCC2CCCO2)c2ccccc21 (stereo not given) | inconclusive: 23.3 µM [inhibitor, single point] | – |
| CCc1ccc(C(=O)c2cn(Cc3ccc(F)cc3)c3cc(OC)c(OC)cc3c2=O)cc1 | inconclusive: 11.2 µM [inhibitor, full curve] | – |
| CCOc1ccc(Nc2nc3c(S(=O)(=O)c4ccc(C(C)C)cc4)nnn3c3ccsc23)cc1 | inconclusive: 63.1 µM [inhibitor, single point] | – |
| COc1ccc(C2=CC(=O)C[C@H](c3ccc(Cl)cc3)C2)cc1 | – | inactive: -1.18% [at 38.3 µM] |
| O=C(O)c1ccc2c(=O)n3c(nc2c1)/C(=C/c1ccccc1Br)CC3 | inconclusive: 50.1 µM [inhibitor, single point] | – |
| CCNc1nc(NCC)n2c(SC(C(=O)Nc3cc(C)ccc3C)c3ccccc3)nnc2n1 (stereo not given) | – | inactive: -2.2% |
| Fc1cccc(-c2nnn3c2nc(NC2CCCCC2)c2ccccc23)c1 | inconclusive: 50.1 µM [inhibitor, single point] | – |
| CC(C)(C)C1CCc2sc(-c3nnc(CCl)o3)cc2C1 (stereo not given) | active: 52.1 µM | – |
| C=CCN1C(=O)N/C(=C/c2ccc(C)o2)C1=O | – | inactive: -1.19% |
| Cc1ccc(C)c(N2CCN(CCCNC(=O)Cn3cccc3C(=O)c3ccccc3)CC2)c1 | – | inactive: 5.25% |
| O=C(c1cc2sccc2n1Cc1ccc(F)cc1)N1CCN(c2nc3ccccc3s2)CC1 | – | inactive: -0.832% |
| CSc1nc(N(CCO)CCO)c2sc3nc(-c4ccco4)c4c(c3c2n1)CCC4 | inconclusive: 58.5 µM [inhibitor, partial curve, poor fit] | – |
| CCC(=O)C1=C(c2ccc(F)cc2)N(C(=O)CC)n2cnnc2S1 | inconclusive: 44.7 µM [inhibitor, partial curve, poor fit] | – |
| CCc1ccccc1NC(=O)CN(c1ccccc1)S(=O)(=O)c1ccsc1C(=O)OC | inconclusive: 63.1 µM [inhibitor, single point] | – |
| O=C(NC1CCCC1)C(c1ccc(F)cc1)N(C(=O)Cc1cccs1)c1ccc2c(c1)OCCO2 (stereo not given) | active: 10.4 µM | – |
| Cc1ccc(N(C(=O)c2sc(C)nc2C)C(C(=O)NCc2ccco2)c2ccccc2)cc1 (stereo not given) | inconclusive: 20.7 µM [inhibitor, single point] | – |
| O=C(CC1C(=O)N(c2ccc(F)cc2)C(=O)N1Cc1ccc2c(c1)OCO2)Nc1ccc(Cl)cc1 (stereo not given) | inconclusive: 44.7 µM [inhibitor, partial curve, poor fit] | – |
| CC1CCCCC1NC(=O)c1cn(C)c2ccc(S(=O)(=O)N3CCCC3)cc2c1=O (stereo not given) | inconclusive: 13.1 µM [inhibitor, full curve] | – |
| COc1cc(C2c3c(-c4ccccc4O)n[nH]c3C(=O)N2Cc2ccco2)ccc1OCC(C)C (stereo not given) | inconclusive: 15.8 µM [inhibitor, full curve] | – |
| CCCn1c(=NC(=O)c2cc3ccccc3o2)c(C(=O)OCC)cc2c(=O)n3ccccc3nc21 | inconclusive: 44.7 µM [inhibitor, single point] | – |
| COc1c(C(CC(C)C)OC(C)=O)ccc2c1C(=O)OCc1cc(C)cc(O)c1O2 (stereo not given) | inconclusive: 44.7 µM [inhibitor, partial curve, poor fit] | – |
| O=S(=O)(Nc1cccc(C(F)(F)F)c1)c1ccc(-c2cnc(C3CC3)o2)cc1 | inconclusive: 50.1 µM [inhibitor, single point] | – |

| SMILES | Potency | activity change, negative = inhibition |
| --- | --- | --- |
| CCCCCSc1nc2sc3c(c2c(=O)n1-c1ccc(OC)cc1)CCN(C(C)=O)C3 | inconclusive: 28.2 µM [inhibitor, partial curve, poor fit] | – |
| O=C(O)CSc1c2c(nc3cc(C(=O)Nc4cccc(C(F)(F)F)c4)ccc13)CCC2 | inconclusive: 58.5 µM [inhibitor, single point] | – |
| CC(C)(C)c1ccc(OCC(=O)Nc2ccc(S(=O)(=O)Nc3ncccn3)cc2)cc1 | inconclusive: 50.1 µM [inhibitor, single point] | – |
| Cc1ccc(S(=O)(=O)N2CCC(C(=O)Nc3ccc(C)c(Cl)c3)CC2)cc1 | – | inactive: -3.16% |
| CCC1C/C(=C\c2cccnc2)C(=O)/C(=C/c2cccnc2)C1 (stereo not given) | active: 52.1 µM | – |
| CSc1cccc(N=C2C(=O)Nc3ccccc32)c1 | – | inactive: -9.3% |
| CCCCOc1ccc(SCCCN2CCOCC2)cc1 | – | inactive: 0.232% |
| C[C@@H]1CCCCO[C@@H](CN(C)C(=O)C2CCCCC2)[C@@H](C)CN([C@H](C)CO)C(=O)c2cc(NC(=O)NC3CCCCC3)ccc2O1 | inconclusive: 50.1 µM [inhibitor, single point] | – |
| CCOc1ccc(C=NNc2ccc(S(=O)(=O)Nc3ccccc3C(=O)O)cc2[N+](=O)[O-])cc1OC | inconclusive: 44.7 µM [inhibitor, single point] | – |
| CCN(CC)CCn1c(NCc2nc3ccccc3n2Cc2ccccc2)nc2ccccc21 | – | inactive: 8.13% |
| O=C(OCc1nc2ccccc2s1)C1CCN(S(=O)(=O)c2cccs2)CC1 | – | inactive: 1.71% |
| Cc1c(NC(=O)Nc2ccc([N+](=O)[O-])cc2)c(=O)n(-c2ccccc2)n1C | – | inactive: 7.03% |
| CN(Cc1ccccc1)S(=O)(=O)c1ccc(-c2cnc(C3CC3)o2)cc1 | – | inactive: 11.4% |
| O=C(NN1C(=O)/C(=C/c2cccnc2)SC1=S)C(c1ccccc1)c1ccccc1 | inconclusive: 58.5 µM [inhibitor, partial curve, poor fit] | – |
| CCOC(=O)C1(CCOc2ccccc2)CCN(Cc2cccc(OCCO)c2)CC1 | – | inactive: 0.627% |
| CC1=C(C(=O)Nc2cccnc2)C(c2ccc(Cl)cc2)n2nc(-c3ccccc3)nc2N1 (stereo not given) | inconclusive: 63.1 µM [inhibitor, single point] | – |
| CCn1c2ccccc2c2cc(/C=N/n3c(-c4cc(C)[nH]n4)n[nH]c3=S)ccc21 | inconclusive: 16.5 µM [inhibitor, full curve] | – |
| O=C(O)c1ccccc1NS(=O)(=O)c1ccc(NN=Cc2ccccc2F)c([N+](=O)[O-])c1 | – | inactive: 25% |
| CCN1CCOC(=O)C1CC(=O)Nc1cc(C)cc(C)c1 (stereo not given) | – | inactive: -2.27% |
| Cc1ccc(N2C(=O)CCSC23C(=O)N(Cc2ccccc2)c2ccccc23)cc1F (stereo not given) | active: 22.4 µM | – |
| C=CCn1c(SCC(=O)Nc2cccc(S(N)(=O)=O)c2)nc2sc(C)c(C)c2c1=O | inconclusive: 58.5 µM [inhibitor, single point] | – |
